# According to paper PMC4336329 (PLoS ONE, 2015):
# The whole screen tested about 310,000 compounds, of which about 2,200 (0.71%) showed an effect of 50% or more. The effect is printed as a negative number. The list shows a part of the results.
# Target: human ether-à-go-go-related gene (hERG) potassium channel (human, UniProt Q12809)
# Test: primary screen, population patch clamp on CHO cells stably expressing hERG
# Chain of human ether-à-go-go-related gene (hERG) potassium channel (Q12809 whole entry, looked up): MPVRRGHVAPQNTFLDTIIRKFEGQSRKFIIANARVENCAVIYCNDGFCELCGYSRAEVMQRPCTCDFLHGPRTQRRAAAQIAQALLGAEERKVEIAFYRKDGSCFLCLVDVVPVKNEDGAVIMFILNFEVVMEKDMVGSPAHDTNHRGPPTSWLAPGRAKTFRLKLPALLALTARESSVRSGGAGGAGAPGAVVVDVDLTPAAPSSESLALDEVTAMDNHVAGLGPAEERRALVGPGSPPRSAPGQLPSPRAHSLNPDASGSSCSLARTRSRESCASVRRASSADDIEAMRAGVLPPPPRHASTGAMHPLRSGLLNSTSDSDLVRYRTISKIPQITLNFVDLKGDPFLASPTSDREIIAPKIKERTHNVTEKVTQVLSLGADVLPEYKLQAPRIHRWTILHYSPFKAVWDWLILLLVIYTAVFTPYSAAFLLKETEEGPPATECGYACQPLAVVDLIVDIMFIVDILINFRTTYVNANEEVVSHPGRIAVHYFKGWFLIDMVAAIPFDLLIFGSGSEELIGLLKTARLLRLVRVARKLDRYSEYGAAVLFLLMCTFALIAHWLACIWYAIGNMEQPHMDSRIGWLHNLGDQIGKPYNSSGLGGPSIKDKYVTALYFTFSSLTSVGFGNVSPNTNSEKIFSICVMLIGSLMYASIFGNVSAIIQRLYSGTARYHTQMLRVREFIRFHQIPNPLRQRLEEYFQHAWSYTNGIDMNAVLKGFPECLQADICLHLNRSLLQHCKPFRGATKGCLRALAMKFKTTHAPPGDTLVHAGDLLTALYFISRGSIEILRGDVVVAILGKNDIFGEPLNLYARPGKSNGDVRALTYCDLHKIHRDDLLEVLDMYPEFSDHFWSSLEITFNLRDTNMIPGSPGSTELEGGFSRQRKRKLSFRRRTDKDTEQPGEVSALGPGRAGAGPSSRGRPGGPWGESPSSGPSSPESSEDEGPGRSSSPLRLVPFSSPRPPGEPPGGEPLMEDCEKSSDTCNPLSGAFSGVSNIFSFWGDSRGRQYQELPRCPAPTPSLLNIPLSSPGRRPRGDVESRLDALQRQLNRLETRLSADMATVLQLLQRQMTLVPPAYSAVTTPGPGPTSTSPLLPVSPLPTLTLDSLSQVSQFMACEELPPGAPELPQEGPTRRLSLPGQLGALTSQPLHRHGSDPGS
row,SMILES,"hERG current change (%, negative = inhibition) at 1uM [%]"
1,Cc1ccc(N(C(=O)CCC(=O)Nc2nccs2)C(C(=O)NC(C)(C)C)c2ccc(O)cc2)cc1 (stereo not drawn),9.59
2,Cc1ccc(C(C(=O)NC2CCCCC2)N(C(=O)c2csnn2)C2CC2)cc1 (stereo not drawn),-1.47
3,O=C(N/N=C/C=C/c1ccco1)c1cccnc1,8.42
4,Cc1ccc(CS(=O)(=O)CCC(=O)NCc2cccs2)cc1,0.172
5,CCCCCCCCN=C1NC(=O)CS1,-3.77
6,CC(C)c1ccc(NC(=O)C(c2ccc3c(c2)OCO3)N2CCN(C(=O)c3ccco3)CC2)cc1 (stereo not drawn),6.41
7,CCCn1c(SCC(=O)Nc2cccc(S(=O)(=O)N(C)C)c2)nc2ccccc2c1=O,5.64
8,COCCCNS(=O)(=O)c1ccc(Cl)c(C(F)(F)F)c1,-1.22
9,O=C(Cc1ccc(Cl)cc1Cl)Nc1ccc(OC(F)F)c(Cl)c1,11.8
10,COc1ccccc1NS(=O)(=O)c1cccc(C(=O)NN)c1,-7.12
11,CCCOc1ccc(C(=O)NCCO)cc1,15
12,O=C(O)C(c1ccccc1)N1C(=O)/C(=C\c2ccc(-c3ccccc3Cl)o2)SC1=S (stereo not drawn),10.3
13,O=C(Nc1nccs1)C1CCN(S(=O)(=O)c2cccnc2)CC1,5.21
14,COC(=O)C(O)(c1ccc(NC(=O)c2ccco2)c(OC)c1)C(F)(F)F (stereo not drawn),4.21
15,O=C(NCCc1csc(-c2cccnc2)n1)c1cccc2ccccc12,7.67
16,O=C(N/N=C(\c1ccccc1)c1cccnc1)C(O)(c1ccccc1)c1ccccc1,-7.26
17,Cc1cc(C)c(C#N)c(SCC(=O)OC2CCCCC2)n1,9.28
18,CC(=O)c1ccc(N2CCN(C(=O)c3ccc4ccccc4n3)CC2)cc1,2.86
19,COc1ccc(CCNC(=O)c2cc(-c3cccs3)on2)cc1OC,1.31
20,C=CCOc1ccc2oc(=O)cc(C)c2c1,4.53
21,O=C(OCCOc1ccccc1)c1cc(S(=O)(=O)N2CCOCC2)ccc1Cl,-4.2
22,CC(C)N1C(=O)C2C(c3ccccc3O)NC(C)(C(=O)O)C2C1=O (stereo not drawn),2.56

row,SMILES,"hERG current change (%, negative = inhibition) at 1uM [%]"
1,N#Cc1c(NC(=O)CSc2n[nH]c(N)n2)oc(-c2ccccc2)c1-c1ccccc1,-1.07
2,O=C1Nc2ccc(Cl)cc2C(=O)C1(F)c1ccccc1 (stereo not drawn),-1.25
3,Cc1ccccc1CCNC(=O)C1CCCN(c2cnccn2)C1 (stereo not drawn),13.6
4,O=C(OCCN1C(=O)c2ccccc2C1=O)c1cc(S(=O)(=O)N2CCOCC2)ccc1Cl,10.1
5,CN(C)N=Nc1ccc(S(=O)(=O)/N=C(\[O-])c2ccccc2)cc1.[K+],13
6,COc1ccc(/C=C2\CCCC3C2=NN(C(=O)c2scnc2C)C3c2ccc(OC)c(OC)c2)cc1OC (stereo not drawn),17.9
7,N#Cc1ccccc1NC(=O)CNc1ccc(Cl)c(C(F)(F)F)c1,7.67
8,Cc1cccc(C)c1NC(=O)CSc1nnc(-c2ccco2)c(-c2ccco2)n1,-13.6
9,Cc1cc[n+](CC(=O)c2cccs2)cc1.[Br-],12
10,CC(=O)c1sc(NC(=O)CS(=O)(=O)c2ccccc2)nc1-c1ccccc1,11.4
11,O=C1N(c2ccccc2)C(c2ccc(Cl)cc2)N2CCCN12 (stereo not drawn),7.99
12,C=CCNC(=S)Nc1cc(Cl)ccc1OC,13.1
13,CC(=O)c1c(C)[nH]c(C(=O)OCC(=O)Nc2sc3c(c2C#N)CCCC3)c1C,16.3
14,CC(C)(C)c1cn(-c2ccccc2)c(=S)[nH]1,16
15,CC1(C)Cc2c(c(-c3ccccc3)[nH]c(=O)c2C#N)CO1,8.34
16,O=C(Nc1c(C(=O)N2CCCC2)cnn1-c1ccccc1)c1cccc(F)c1,10.2
17,CC1CCCCN1C(=O)c1ccccc1NC(=O)c1ccco1 (stereo not drawn),9.72
18,O=C(CN1C(=O)NC2(CCCc3ccccc32)C1=O)Nc1cccc(S(=O)(=O)N2CCCCC2)c1 (stereo not drawn),19.3
19,CCC(=C/c1sc2ccc3ccccc3c2[n+]1C)/C=C1\Sc2ccc3ccccc3c2N1C.[Cl-],7.07
20,COc1ccc(CNC(=O)C(c2cccs2)N(C(=O)c2csnn2)C2CC2)cc1 (stereo not drawn),7.37
21,COC(=O)c1c(NC(=O)COC(=O)c2ccc(C)s2)sc2c1CCCCC2,11
22,COc1ccccc1C(=O)NC(=O)COC(=O)C1CC1C (stereo not drawn),3.94

row,SMILES,"hERG current change (%, negative = inhibition) at 1uM [%]"
1,CC(=O)c1ccc(N2CCC(C)CC2)c(F)c1,17.4
2,O=C(NCc1ccc(N2CCCC2=O)cc1)Nc1cccc2ccccc12,-1.78
3,COc1ccc(-c2cc(CCCC(=O)NCc3ccccn3)no2)cc1,8.27
4,Cc1cc(C)nc(N2CCCC(C(=O)NNC(=O)c3ccncc3)C2)n1 (stereo not drawn),7.59
5,CC(=O)N=c1sc(C(C)(C)C)c(C)n1C,2.16
6,CC(=O)C(C(C)=O)c1c(Cl)c(O)c(O)c2c(C(=O)c3ccccc3)coc12,7.84
7,O=C(/C=C/c1ccco1)N/C(=C\c1ccco1)C(=O)NCCc1nc2ccccc2[nH]1,10.4
8,Cc1ccnc(NC(=O)c2ccc([N+](=O)[O-])s2)c1,-0.627
9,CC(C)CCNC1=CC(=O)CC(c2ccccc2)C1 (stereo not drawn),-0.257
10,COc1ccc(CNS(=O)(=O)c2c(C(=O)N3CCCCCC3)c(C)n(C)c2C)cc1,10.5
11,Cc1ccc(Oc2ccc(OCC(=O)NC3CCS(=O)(=O)C3)cc2)cc1 (stereo not drawn),9.74
12,Cc1ccc2c(c1)N(S(=O)(=O)c1cc(-c3cc(C)no3)ccc1C)CCO2,11.2
13,CC(/C=C(\C)Nc1ccccc1)=[NH+]c1ccccc1.[O-][Cl+3]([O-])([O-])[O-],24.9
14,O=S(=O)(Nc1ccccc1)c1ccc2c(c1)CCO2,1.89
15,O=c1[nH]c(=O)n(Cc2ccccc2)c(O)c1C=NCCN1CCNCC1,13.5
16,Cc1cccc(N(C(=O)CNC(=O)c2ccco2)C(C(=O)NC2CCCC2)c2ccncc2)c1 (stereo not drawn),16.4
17,CN1CCN(c2ccc(NC(=O)CSc3nnnn3-c3ccccc3Cl)cc2)CC1,-8.64
18,COc1ccc(NC(=O)c2cc(-c3ccc(C)cc3)on2)cc1,12.8
19,COCCNC(=O)C(c1ccc(C)cc1)N(C(=O)CCC(=O)Nc1ccccn1)c1ccc(C)cc1 (stereo not drawn),11.2
20,CC(C)(C)OC(=O)N1CCC[C@H]1c1nnc(SCc2ccccc2F)o1,-0.443
21,Cc1cccc(C(=O)N[C@H](C(=O)Nc2nnc(C3CC3)s2)C(C)C)c1,2.92
22,CCc1noc(C)c1C(=O)N1CC(C)SC1=Nc1ccc(Cl)cc1 (stereo not drawn),-1.52

row,SMILES,"hERG current change (%, negative = inhibition) at 1uM [%]"
1,N#C/C(C(=O)N1CCCCC1)=C1\Nc2ccccc2S1,3.99
2,CCCc1nc2oc3c(NCc4ccccn4)ncnc3c2c2c1COC(C)(C)C2,-10.8
3,O=C1NCCCC2c3c(cc(Br)c(O)c3Br)OC12N1CCCCC1 (stereo not drawn),9.15
4,CC(O)[C@H]1CNCCN1CCc1cccc(F)c1 (stereo partly drawn),14.4
5,CCc1cccc(NC(=O)C2CCCN(c3cnccn3)C2)c1 (stereo not drawn),8.24
6,O=C(Nc1ccccc1)N1C2CCC1CC(O)(c1cccnc1)C2 (stereo not drawn),13.4
7,Cc1cccn2c(=O)c(C=NCc3ccco3)c(Nc3ccc(SC(F)F)cc3)nc12,-2.54
8,Cc1ccc(-n2nc3c(c2NC(=O)c2ccc(S(=O)(=O)N4CCOCC4)cc2)CSC3)c(C)c1,1.39
9,CC(C)C(=O)Nc1nnc(CCc2ccccc2)s1,10.3
10,Cc1ccc(CCNC(=O)C2CCC(=O)N(CC3CCCCC3)C2)cc1 (stereo not drawn),-4.63
11,COc1ccc(C(=O)CCc2ccccc2)cc1,11.7
12,CN(C)S(=O)(=O)c1cccc(-c2nnc(SCC(=O)NCCCCCC(=O)O)n2-c2ccc(F)cc2)c1,19.4
13,Cn1cccc1/C=C1/C(=O)NC(=O)N(C(C)(C)C)C1=O,8.05
14,Cc1cc(C)c(NC(=O)CSc2nnc(SCC(=O)Nc3c(C)cc(C)cc3C)n2N)c(C)c1,13.9
15,O=C(Nc1ccc(N2CCN(C(=O)c3ccco3)CC2)c(Cl)c1)c1cccnc1,9.32
16,COc1cc(/C=N/Nc2snc(SC)c2C#N)ccc1O,6.81
17,CCCCCCCCOC(=O)C[N+](C)(C)C/C=C(/C)Cl.[Br-],9.72
18,COc1ccc2c(c1)C=C(CN1CCN(C(C)C)C(CCO)C1)CO2 (stereo not drawn),5.85
19,Cc1ccc(-c2nnc(Oc3ccc(NC(=O)c4ccccc4)cc3)c3ccccc23)cc1,12.5
20,Cc1nnc(SCC2=C(C(=O)O)N3C(=O)C(NC(=O)COc4ccc(F)cc4)C3SC2)s1 (stereo not drawn),18.6
21,CC(C)c1ccc(NS(=O)(=O)c2cccc3cccnc23)cc1,4.57
